Source: PubChem BioAssay AID662 (National Center for Advancing Translational Sciences (NCATS), 2007)
Hit rate of the full screen: of about 71,000 compounds, about 1,800 (2.5%) were called active. The inconclusive results got no clear call from the source; some entries with a clear call stand among them for comparison. Calls follow the shape of the dose curve; as a rule, active = well fitted activation curve with a large enough effect in the signal ratio, with a control signal flat (not every such curve was filed as active); inconclusive = small, poorly fitted or top-dose-only effect, or effect the other way, or a change in a side signal; inactive = flat fitted curve, though single readings scatter; the % refers to the signal ratio. Where the call is inconclusive, the potency comes from a doubtful curve fit.

Assay: Cell signaling CRE-BLA (Fsk stim); as to activity change, negative = inhibition: % of control where 0% means no effect
Details: CHO CRE-bla reporter (cAMP response element driving beta-lactamase), forskolin EC10, beta-lactamase ratio
In short: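 Modulation of forskolin signalling: compounds in titration series added with EC10 NKH 477 to CHO cells carrying a CRE-driven beta-lactamase reporter, 3 h, 37C. CCF4 FRET ratio (460/530 nm, ex 405 nm) gives %activity and AC50.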

[1] = activity change, negative = inhibition: at 38.2 µM (top of the series) unless noted
Potency is read from the fitted curve at half-maximal effect; tags tell the direction and shape of the fitted curve.

For `C=CCSc1nc2c(c(=N)n1CC=C)C1CCCC1S2` (stereo not drawn), the Potency [1] was inconclusive: 10 µM [rising, partial curve].

For `O=C(CC(=O)c1cc(Cl)ccc1O)c1ccccc1`, the Potency [1] was inconclusive: 10 µM [falling, single point].

In the case of `CC(=O)Nc1ccc(S(=O)(=O)N2CCC(NC(=O)c3ccco3)CC2)cc1`, the activity change, negative = inhibition [1] is reported as “inactive”.

In the case of `CC(=O)N1[C@H](Cc2ccccc2)C=C[C@]1(C)C(=O)O`, the activity change, negative = inhibition [1] is reported as “inactive”.

In the case of `N#Cc1nc(-c2ccc(OCc3ccccc3)cc2)oc1N1CCC(C(N)=O)CC1`, the activity change, negative = inhibition [1] is reported as “inactive”.

With `c1ccc(Cc2nnc3sc(-c4cccs4)nn23)cc1` the activity change, negative = inhibition [1] was “inactive”.

In the case of `O=C(Nc1ccc(C(=O)Nc2ccc(C(=O)Nc3ccc(S(=O)(=O)O)c4cc(S(=O)(=O)O)cc(S(=O)(=O)O)c34)cc2)cc1)Nc1ccc(C(=O)Nc2ccc(C(=O)Nc3ccc(S(=O)(=O)O)c4cc(S(=O)(=O)O)cc(S(=O)(=O)O)c34)cc2)cc1`, the activity change, negative = inhibition [1] is reported as “inactive”.

In the case of `Cc1n[nH]c(C)c1S(=O)(=O)N1CCCC(C(=O)NC2CCCCC2)C1` (stereo not drawn), the activity change, negative = inhibition [1] is reported as “inactive”.

With `Cn1c(SCc2c(Cl)cccc2Cl)nnc1-c1cccs1` the Potency [1] was inconclusive: 5.01 µM [rising, single point].

With `O=C(Nc1ccc2c(c1)OCO2)c1cc2ncc(Br)cn2n1` the activity change, negative = inhibition [1] was “inactive”.

With `Oc1cc2c(c(Cl)c1O)CCNC[C@H]2c1ccccc1` the activity change, negative = inhibition [1] was inconclusive: -22.8% and the activity change, negative = inhibition (at 38.2 µM (top of the series)) was inactive: -11.4%.

For `COc1ccc(Br)cc1CNC(=O)CCN1C(=O)COc2ccccc21`, the activity change, negative = inhibition [1] was “inactive”.

In the case of `CCOC(=O)C1=C(C)N=C2SCCC(=O)N2C1c1ccc(C(=O)OC)cc1` (stereo not drawn), the activity change, negative = inhibition [1] is reported as “inactive”.

For `N#Cc1nc(-c2cccc3ccccc23)oc1NCCN1CCOCC1`, the Potency [1] was active: 10 µM.

With `O=C(NC1CCCCC1)N(CCN1CCCC1)Cc1cc2cc3c(cc2[nH]c1=O)OCCO3` the activity change, negative = inhibition [1] was “inactive”.

For `O=C(O)C1CCCN1S(=O)(=O)c1ccc2[nH]c(=O)c(=O)[nH]c2c1` (stereo not drawn), the activity change, negative = inhibition [1] was “inactive”.

With `CC(C)(C)n1ncc2c(=O)n(CC(=O)c3ccccc3)cnc21` the activity change, negative = inhibition [1] was inconclusive: 16.3%.

With `COc1ccc2oc(-c3ccccc3)c(OC)c(=O)c2c1` the activity change, negative = inhibition [1] was “inactive”.

With `O=C1OC2CC3CC1CC(O)(C3)C2` (stereo not drawn) the Potency [1] was inconclusive: 1.58 µM [rising, full curve].

In the case of `OCCN1CCN(C(c2cccs2)c2ccc3cccnc3c2O)CC1` (stereo not drawn), the Potency [1] is reported as inconclusive: 15.8 µM [falling, single point].

For `CC(C)c1nc(N2CCN(C(=O)c3ccco3)CC2)c2c3c(sc2n1)CCCC3`, the Potency [1] was inconclusive: 25.1 µM [falling, single point].

In the case of `COc1cccc(N2CCN(C3CC(=O)N(c4ccc(Cl)cc4)C3=O)CC2)c1` (stereo not drawn), the activity change, negative = inhibition [1] is reported as inconclusive: -2.65% [at 7.6 µM].

In the case of `C=CCSc1nnc2c(n1)[nH]c1c(C)cccc12`, the Potency [1] is reported as inconclusive: 10 µM [rising, partial curve].

With `CCOc1ccc(-c2cc(CCCC(=O)Nc3cc(OC)ccc3OC)no2)cc1` the Potency [1] was inconclusive: 1.26 µM [rising, partial curve].

In the case of `COc1ccccc1CN1CCCC2(CCN(C(=O)c3c(C)noc3C)CC2)C1`, the activity change, negative = inhibition [1] is reported as “inactive”.

For `CCCNC(=O)c1c[nH]c2ccc(S(=O)(=O)N(C)c3ccc(OCC)cc3)cc2c1=O`, the activity change, negative = inhibition [1] was inconclusive: -6.98%.

For `O=C(c1ccccc1)N1CCN(C(=O)c2ccccc2Br)CC1`, the activity change, negative = inhibition [1] was “inactive”.

In the case of `COc1ccc(N2CCN(Cc3nc(N)nc(Nc4ccc(C)c(Cl)c4)n3)CC2)cc1`, the activity change, negative = inhibition [1] is reported as inconclusive: -17%.

With `CC(C)c1ccc(O)c(O)c(=O)c1` (tested in a mixture with another compound) the activity change, negative = inhibition [1] was inconclusive: -28.4% [at 7.6 µM].

In the case of `COCCn1c(=O)c(C)nc2cnc(N3CCN(C)CC3)nc21`, the activity change, negative = inhibition [1] is reported as “inactive”.

In the case of `Cc1[nH]nc2c1C1(CCC3(CC1)OCCO3)C(C#N)=C(N)O2`, the activity change, negative = inhibition [1] is reported as “inactive”.

In the case of `CN(Cc1nc2ccccc2n1C)S(=O)(=O)c1ccc(F)cc1`, the activity change, negative = inhibition [1] is reported as inconclusive: -2.64%.

For `Oc1ccc(Cl)cc1Cc1cc(Cl)ccc1O`, the activity change, negative = inhibition [1] was inconclusive: -14.6%.

With `CC1CC(=O)c2cnc(NCC3CCCO3)nc2C1` (stereo not drawn) the activity change, negative = inhibition [1] was inconclusive: 22.4%.

For `Cc1cc(-c2ccccc2)nc2cc(C(=O)NCCCn3ccnc3)nn12`, the activity change, negative = inhibition [1] was “inactive”.

With `Cc1noc(C)c1COc1ccc(C(=O)OC(C)C(=O)Nc2ccc(N3CCOCC3)cc2)cc1` (stereo not drawn) the Potency [1] was inconclusive: 3.98 µM [falling, single point].

With `COC(=O)c1sc2cnccc2c1N` the Potency [1] was inconclusive: 12.6 µM [rising, partial curve].

In the case of `Cc1occc1C(=O)NC(C)CCc1ccccc1` (stereo not drawn), the activity change, negative = inhibition [1] is reported as inconclusive: -28.5% [at 7.6 µM].

With `COc1cc(CN2CCC(C(=O)N3CCN(c4ccccc4F)CC3)CC2)ccc1O` the Potency [1] was inconclusive: 3.16 µM [falling, single point].

In the case of `CC(=O)Nc1ccc(S(=O)(=O)N2CCN(C(=O)CCC3CCCC3)CC2)cc1`, the activity change, negative = inhibition [1] is reported as inconclusive: -2.63% [at 7.6 µM].

In the case of `Cc1cc(-c2nc3c4c5c(sc4[nH]c(=O)n3n2)CCC5)c(C)o1`, the activity change, negative = inhibition [1] is reported as “inactive”.

For `Cc1cc(OCC(=O)O)c2cccc(C)c2n1`, the activity change, negative = inhibition [1] was “inactive”.

With `Cc1nc(N)sc1-c1nnc(SCC(=O)Nc2nccs2)n1C` the activity change, negative = inhibition [1] was “inactive”.

With `COc1ccc(-c2csc(Cc3nnc(N4CCOCC4)n3-c3ccccc3)n2)cc1` the activity change, negative = inhibition [1] was inconclusive: 19.5%.

For `CCCc1cc(-c2[nH]ncc2-c2ccc(C(=O)OCC)o2)c(O)cc1O`, the Potency [1] was inconclusive: 5.01 µM [falling, full curve].

In the case of `Cn1c(=O)c(C(=O)CSc2nncs2)c(N)n(Cc2ccccc2)c1=O`, the activity change, negative = inhibition [1] is reported as “inactive”.

For `Cn1c(=O)c2c(nc(NCCCN3CCOCC3)n2Cc2ccc(Cl)cc2)n(C)c1=O`, the Potency [1] was inconclusive: 7.94 µM [rising, partial curve].

In the case of `c1ccc(N2CC[N+]3(CCCC3)CC2)nc1`, the activity change, negative = inhibition [1] is reported as inconclusive: 19.8%.

For `COC(=O)c1ccc(C(NC(=O)OCc2ccccc2)/C(I)=C/[C@@H](C)C(=O)Nc2ccccc2)cc1` (stereo partly drawn), the activity change, negative = inhibition [1] was “inactive”.

In the case of `COc1ccc(Cc2nc(-c3cccs3)no2)cc1OC`, the Potency [1] is reported as active: 3.98 µM.

In the case of `COCc1nc(-c2ccc(-c3ccc(OC)cc3)nc2OC)no1`, the Potency [1] is reported as inconclusive: 3.98 µM [rising, partial curve].

With `COC(=O)[C@@]1(Cc2ccc(F)cc2)[C@H]2c3cc(C(=O)N4CCCC4)n(Cc4cc(C)n(C)n4)c3C[C@H]2CN1C(=O)c1ccccc1` the activity change, negative = inhibition [1] was inconclusive: 12.3%.
